Data on 27 compounds can be found in the supplement of paper PMC10037445.

± gives the standard deviation of the averaged measurements. Over roughly 2,900 compounds, “IRF Lucia reporter activity, fold change vs agonist alone” has its median near 0.9; the highest 2% begin near 2.8. This is one part of the list.

The test system of assay [1] is RAW-Dual. As to the kind of experiment: IRF Lucia reporter activity, fold change vs agonist alone; cytotoxicity flag (confluency mask): cytotoxic (confluency <70% of control); higher = enhanced IRF activity. The gist of the method: (§1)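 Supernatant from RAW-Dual macrophages was read after 20 hours for IRF by QuantiLuc luminescence and for NF-κB by QuantiBlue absorbance at 620 nm. The cells (50,000 cells/well in DMEM, 384-well plates, 37 °C, 5% CO2) had received 50 nL of library stock by pin tool and, 1 h later, a PRR agonist. Reporter activity is expressed relative to agonist-alone wells as fold change, and wells were flagged cytotoxic if IncuCyte confluency was under 70% of agonist controls in both mask sets.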

In assay [2] the test system is RAW-Dual. As to the kind of experiment: IRF Lucia reporter activity, fold change vs agonist alone; higher = enhanced IRF activity. The settings on record: library stock concentration (final ~1000-fold dilution): 10 mM, agonist: MPLA (TLR4) […]. The essentials: as §1
For assay [3], the system named is RAW-Dual. As to the kind of experiment: IRF Lucia reporter activity, fold change vs agonist alone; cytotoxicity flag (confluency mask): not cytotoxic; higher = enhanced IRF activity. The essentials:
as §1

[4] abbreviates: agonist: 3'3'-cGAMP (STING) 10 ug/mL.
The mark [5] stands for this setting: cytotoxicity flag (confluency mask): cytotoxic (confluency <70% of control).
[6] abbreviates: cytotoxicity flag (confluency mask): not cytotoxic.

As to `OC1(c2ccc(Cl)c(C(F)(F)F)c2)CCN(CCCC(c2ccc(F)cc2)c2ccc(F)cc2)CC1` (library stock concentration (final ~1000-fold dilution): 10 mM), the “IRF Lucia reporter activity” value turned out to be 0.0211 with RAW-Dual [1] (setting [4]) and 0.0256 in the assay on RAW-Dual [1] (agonist: LPS (TLR4) 0.1 ug/mL). In the case of `OC1(c2ccc(Cl)c(C(F)(F)F)c2)CCN(CCCC(c2ccc(F)cc2)c2ccc(F)cc2)CC1`, in the assay with RAW-Dual [2] (setting [5]), the “IRF Lucia reporter activity” value is 0.0399.

`O=C(Cc1ccccc1)Nc1nnc(NC2CCN(c3nnc(NC(=O)Cc4ccccc4)s3)CC2)s1` (library stock concentration (final ~1000-fold dilution): 10 mM): the “IRF Lucia reporter activity” value stood at 0.884 in the assay on RAW-Dual [3] (setting [4]) and 1.04 with RAW-Dual [3] (agonist: LPS (TLR4) 0.1 ug/mL). With `COc1cc(O)cc(O)c1C(=O)/C=C/c1ccccc1` (library stock concentration (final ~1000-fold dilution): 10 mM), the “IRF Lucia reporter activity” value in the assay on RAW-Dual [1] (setting [4]) was determined as 0.0503 ± 0.025; with RAW-Dual [1] (agonist: LPS (TLR4) 0.1 ug/mL), 0.256 ± 0.099. Take `COc1cc(O)cc(O)c1C(=O)/C=C/c1ccccc1`: the “IRF Lucia reporter activity” value in the assay with RAW-Dual [2] (setting [5]) worked out at 0.675 ± 0.41. On to `Cc1cnc(NC(=O)C2=C(O)c3ccccc3S(=O)(=O)N2C)s1`, for which the “IRF Lucia reporter activity” value in the assay on RAW-Dual [2] (setting [6]) was determined as 0.731. Consider `Cc1cnc(NC(=O)C2=C(O)c3ccccc3S(=O)(=O)N2C)s1` (library stock concentration (final ~1000-fold dilution): 10 mM), for which the “IRF Lucia reporter activity” value was 0.955 in the assay with RAW-Dual [3] (setting [4]) and 1.03 with RAW-Dual [3] (agonist: LPS (TLR4) 0.1 ug/mL).

For the compound `CNCCC(Oc1cccc2ccccc12)c1cccs1` (stereo not drawn), in the assay on RAW-Dual [2] (setting [5]), the “IRF Lucia reporter activity” value came out at 0.811.

Take `CNCCC(Oc1cccc2ccccc12)c1cccs1` (stereo not drawn) (library stock concentration (final ~1000-fold dilution): 10 mM): the “IRF Lucia reporter activity” value with RAW-Dual [1] (setting [4]) came out at 0.631; in the assay with RAW-Dual [1] (agonist: LPS (TLR4) 0.1 ug/mL), 0.398. With `O=C(O)CCCc1ccccc1`, the “IRF Lucia reporter activity” value in the assay on RAW-Dual [2] (setting [6]) was found to be 1.1. On to `O=C(O)CCCc1ccccc1` (library stock concentration (final ~1000-fold dilution): 10 mM), for which the “IRF Lucia reporter activity” value in the assay on RAW-Dual [3] (setting [4]) was 1.07; in the assay on RAW-Dual [3] (agonist: LPS (TLR4) 0.1 ug/mL), 1.25. The corresponding values for `Cn1cc(-c2ccc(F)c(C(F)(F)F)c2)nc1C1CCN(c2ncnc3[nH]ncc23)CC1` (library stock concentration (final ~1000-fold dilution): 2 mM) are 0.971 and 0.96. Regarding `CNCCN1CCC(OCc2ccccc2)CC1.Cl.Cl` (library stock concentration (final ~1000-fold dilution): 10 mM), the figures for the “IRF Lucia reporter activity” value with RAW-Dual [3] (setting [4]) and in the assay with RAW-Dual [3] (agonist: LPS (TLR4) 0.1 ug/mL) were 0.445 and 1, respectively. `CC(C)(Cc1ccc2ccccc2c1)NCC(O)COc1cccc(Cl)c1C#N` (stereo not drawn): in the assay with RAW-Dual [2] (setting [6]), the “IRF Lucia reporter activity” value was 1.06. Consider `CC(C)(Cc1ccc2ccccc2c1)NCC(O)COc1cccc(Cl)c1C#N` (stereo not drawn) (library stock concentration (final ~1000-fold dilution): 10 mM), for which the “IRF Lucia reporter activity” value with RAW-Dual [3] (setting [4]) came to 1.1; in the assay with RAW-Dual [3] (agonist: LPS (TLR4) 0.1 ug/mL), 0.0451. Take `O=C(c1cccc(Cl)c1F)N1CCN(Cc2cccc(Nc3nccs3)n2)CC1` (library stock concentration (final ~1000-fold dilution): 10 mM): the “IRF Lucia reporter activity” value worked out at 0.249 in the assay with RAW-Dual [3] (setting [4]) and 0.813 with RAW-Dual [3] (agonist: LPS (TLR4) 0.1 ug/mL). With `O=C(c1cccc(Cl)c1F)N1CCN(Cc2cccc(Nc3nccs3)n2)CC1`, the “IRF Lucia reporter activity” value in the assay with RAW-Dual [2] (setting [6]) amounted to 0.973.

Regarding `Oc1cc(O)c2c(c1)OC(c1ccc(O)c(O)c1)C(O)C2c1c(O)cc(O)c2c1OC(c1ccc(O)c(O)c1)C(O)C2` (stereo not drawn) (library stock concentration (final ~1000-fold dilution): 1 mM), the “IRF Lucia reporter activity” value worked out at 0.789 with RAW-Dual [3] (setting [4]) and 0.717 with RAW-Dual [3] (agonist: LPS (TLR4) 0.1 ug/mL). With `CC1OC(OC2CCC3(C)C(CCC4(C)C3C=CC35OCC6(CCC(C)(C)CC63)C(O)CC45C)C2(C)CO)C(O)C(OC2OC(CO)C(O)C(O)C2O)C1O` (stereo not drawn), in the assay with RAW-Dual [2] (setting [5]), the “IRF Lucia reporter activity” value was determined as 0.0883.

On to `CC1OC(OC2CCC3(C)C(CCC4(C)C3C=CC35OCC6(CCC(C)(C)CC63)C(O)CC45C)C2(C)CO)C(O)C(OC2OC(CO)C(O)C(O)C2O)C1O` (stereo not drawn) (library stock concentration (final ~1000-fold dilution): 10 mM), for which the “IRF Lucia reporter activity” value with RAW-Dual [1] (setting [4]) is 0.0904; in the assay with RAW-Dual [1] (agonist: LPS (TLR4) 0.1 ug/mL), 0.112. Consider `CCOC(=O)C=P(c1ccccc1)(c1ccccc1)c1ccccc1` (library stock concentration (final ~1000-fold dilution): 10 mM), for which the figures for the “IRF Lucia reporter activity” value with RAW-Dual [3] (setting [4]) and with RAW-Dual [3] (agonist: LPS (TLR4) 0.1 ug/mL) were 0.979 and 1.3, respectively.

`CCOC(=O)C=P(c1ccccc1)(c1ccccc1)c1ccccc1`: in the assay with RAW-Dual [2] (setting [6]), the “IRF Lucia reporter activity” value was 1.08. As to `COc1cccc(NC(=O)/C=C/c2ccc(Cl)cc2)c1` (library stock concentration (final ~1000-fold dilution): 10 mM), the results for the “IRF Lucia reporter activity” value in the assay on RAW-Dual [3] (setting [4]) and in the assay with RAW-Dual [3] (agonist: LPS (TLR4) 0.1 ug/mL) were 0.863 and 0.892, respectively. The corresponding values for `COc1cc(OC)c2c(=O)[nH]c(-c3cc(C)c(OCCO)c(C)c3)nc2c1` (library stock concentration (final ~1000-fold dilution): 10 mM) are 0.492 and 0.392.

Turning to `COc1cc(OC)c2c(=O)[nH]c(-c3cc(C)c(OCCO)c(C)c3)nc2c1`, the “IRF Lucia reporter activity” value with RAW-Dual [2] (setting [6]) worked out at 0.582. As to `Cc1ccc(C(=O)Nc2ccc(CN3CCN(C)CC3)c(C(F)(F)F)c2)cc1C#Cc1cnc2cccnn12` (library stock concentration (final ~1000-fold dilution): 10 mM), the “IRF Lucia reporter activity” value stood at 0.0706 in the assay on RAW-Dual [1] (setting [4]) and 0.0229 in the assay with RAW-Dual [1] (agonist: LPS (TLR4) 0.1 ug/mL).

`Cc1ccc(C(=O)Nc2ccc(CN3CCN(C)CC3)c(C(F)(F)F)c2)cc1C#Cc1cnc2cccnn12`: the “IRF Lucia reporter activity” value with RAW-Dual [2] (setting [5]) was 0.0224.
